From PubChem BioAssay AID463173 (ICCB-Longwood Screening Facility, Harvard Medical School, 2010)
Hit rate of the full screen: of about 52,000 compounds, about 1,700 (3.3%) were called active. Cut-off read from the data, not from the text of the source: active = survival mostly below about 52% (no sharp cut-off); inactive = mostly above about 56%. Some of the results follow.

System: Wild type
Experiment: S. aureus survival, RN4220 and DeltatarO strains – OD600, teichoic acid synthesis inhibitors, primary screen (AID 463173)
Conditions: S. aureus RN4220 wild type/DeltatarO growth, OD600, 18 h, hits give low values, screened at 18.75 µg/mL (by protocol)

| Structure (SMILES) | survival |
| --- | --- |
| COc1ccc(NC(=O)CSCc2cnn(-c3ccccc3)c2-n2cccc2)cc1 | inactive: 123% |
| CC(C)CNC(=O)Cc1ccccc1 | inactive: 101% |
| Cc1ccc2[nH]c(=O)cc(C(=O)O)c2c1 | inactive: 118% |
| COc1cc(C(=O)N2CCN(CCc3ccccn3)CC2)cc(OC)c1OC | inactive: 82% |
| COc1cc(OC)cc(C(=O)NCC(c2cccs2)S(=O)(=O)c2ccc(F)c(C)c2)c1 (stereo not given) | inactive: 143% |
| Cc1nc2ccc(NC(=S)NCCCO)cc2nc1C | inactive: 105% |
| COc1ccccc1NC(=O)CN1C(=O)C2(SCC(=O)N2c2ccc(C)c(C)c2)c2ccccc21 (stereo not given) | inactive: 74% |
| Cc1ccc(N(CC(=O)Nc2cc(C)cc(C)c2)S(=O)(=O)c2cccc3nonc23)cc1 | inactive: 85% |
| CC1=C(c2ccc(C)cc2)S(=O)(=O)N(Cc2ccc(C(=O)Nc3ccc(F)cc3C)cc2)C1=O | inactive: 135% |
| O=CN1CCN(S(=O)(=O)c2ccc(S(=O)(=O)NC3CC3)cc2)CC1 | inactive: 110% |
| O=C(CSc1ccc(-c2ccc(F)cc2)nn1)N1CCOCC1 | inactive: 112% |
| NS(=O)(=O)c1ccc(NC(=O)c2ccc3c(c2)CCN3S(=O)(=O)c2ccccc2)cc1 | inactive: 75% |
| CC(CC(=O)Nc1ccc(Br)cc1F)S(=O)(=O)c1ccc2c(c1)NC(=O)CO2 (stereo not given) | inactive: 63% |
| CC(C)c1ccc(C2N=C(N)Nc3nc4ccccc4n32)cc1 (stereo not given) | inactive: 93% |
| Cc1cc(C)cc(NC(=O)Cn2c(=O)c3ccccc3n3nncc23)c1 | inactive: 84% |
| CCCCOc1ccc(CNC(=O)CCCN2C(=O)CSc3c2c(C)nn3-c2ccccc2)cc1 | inactive: 59% |
| CCOC(=O)c1ccccc1NC(=O)c1sc2nc3n(c(=O)c2c1C)CCCC3 | inactive: 111% |
| CCc1ccc(CNC(=O)CN2C(=O)c3cccnc3Oc3ccc(C)cc32)cc1 | inactive: 71% |
| Cc1ccc2c(=O)cc(C(=O)Nc3ccc(S(=O)(=O)N4CCCCCC4)cc3)oc2c1C | inactive: 72% |
| O=C(O)CCc1ccc(-c2ccc(F)cc2)n1CCC(=O)O | inactive: 105% |
| Cc1c(Cl)cccc1NC(=O)C(C)n1nnc2sc3c(c2c1=O)CCCC3 (stereo not given) | inactive: 97% |
| Cc1c(C)n(C)c2ccc(C(=O)N3CCN(c4ccccc4)CC3)cc12 | inactive: 64% |
| COc1ccc(C2NCCO2)cc1OC (stereo not given) | inactive: 116% |

| Structure (SMILES) | survival |
| --- | --- |
| CSc1ncc(Cl)c(C(=O)N(Cc2ccc(N(C)C)cc2)Cc2ccco2)n1 | inactive: 99% |
| Cc1ccc(CNC(=O)Cn2cc(C(=O)c3ccc(F)cc3)c(=O)c3ccc(C)nc32)cc1 | inactive: 64% |
| CCc1ccc(Cc2cnc(NC(=O)c3ccc4c(c3)CC(c3ccccc3)OC4=O)s2)cc1 (stereo not given) | inactive: 92% |
| Cc1cccc(C2CC(=O)Oc3c2c(=O)n(C)c2ccccc32)c1 (stereo not given) | inactive: 143% |
| CCOC(=O)C1CCN(C(=O)C2CCN(C3=NS(=O)(=O)C(c4ccc(C)c(C)c4)=C3C)CC2)CC1 | inactive: 80% |
| CC(C)CCNC(=O)C1CCC(Cn2c(=O)c3sccc3n(CC(=O)NC(C)C)c2=O)CC1 (stereo not given) | inactive: 87% |
| O=C(Cn1c(=O)n(-c2ccc(F)c(Cl)c2)c(=O)c2sc3ccccc3c21)NC1CCCC1 | inactive: 97% |
| Cc1ccc(-n2c(=O)c3oc4ccccc4c3n(Cc3ccccc3F)c2=O)cc1C | inactive: 115% |
| COc1ccc(CNC(=O)c2cc3c(s2)-c2ccccc2OC3)cc1 | inactive: 92% |
| CN(C)c1cc(Nc2ccc(Cl)cc2)c2c3c(onc13)-c1ccccc1C2=O | inactive: 96% |
| CCC(C)NC(=O)C(=O)Nc1c2c(nn1-c1ccccc1)CS(=O)(=O)C2 (stereo not given) | inactive: 72% |
| COc1ccc(CNCCC2(O)CC(C)N(C)CC2C)cc1OC (stereo not given) | inactive: 113% |
| O=C(c1ccc2c(c1)N(Cc1ccc(Cl)cc1)C(=O)c1ccccc1S2(=O)=O)N1CCCCC1 | inactive: 144% |
| CC1CN(C(=O)CCC(=O)NCc2ccc(F)cc2)c2cc(Cl)ccc2O1 (stereo not given) | inactive: 90% |
| COc1ccc(NC(=O)CSc2nc3c(oc4ccccc43)c(=O)n2-c2ccc(C)c(C)c2)cc1 | inactive: 94% |
| CCOC(=O)c1c(NC(C)=O)c2c3c(sc2n1Cc1nc(-c2ccccc2C)oc1C)CCCC3 | inactive: 89% |
| O=C(Nc1nc2ccc(F)cc2s1)c1nc(S(=O)(=O)Cc2ccccc2)ncc1Cl | inactive: 27% |
| O=C(O)C1CSC2c3ccccc3C(=O)N12 (stereo not given) | inactive: 124% |
| CCOc1ccc(CCNC(=O)C2COc3ccccc3C2)cc1OCC (stereo not given) | active: -2% |
| O=C(CN1C(=O)CCSc2ccccc21)Nc1ccccc1F | inactive: 81% |
| COc1cc(OC)c(NC(=O)NCc2ccc3c(c2)CCN3C(=O)c2ccccc2)cc1Cl | inactive: 97% |
| COc1ccc2c(c1)CCc1c(C(=O)Nc3c(C)nn(Cc4ccc(Cl)c(Cl)c4)c3C)noc1-2 | inactive: 97% |
